Results are given in words; binding and its absence hold for the method and conditions named. For some of these results: In cells and extracts the contact can be indirect. Some results given as binding are weak or reduced against the parent protein; the word gives no strength. For some of these results: Where a sequence is shown, tags or fusion partners need not be part of it.

Amino acid sequences for entries named in this document (tags omitted). Residues count along the entry.
UniProt P02769, residues 25-607: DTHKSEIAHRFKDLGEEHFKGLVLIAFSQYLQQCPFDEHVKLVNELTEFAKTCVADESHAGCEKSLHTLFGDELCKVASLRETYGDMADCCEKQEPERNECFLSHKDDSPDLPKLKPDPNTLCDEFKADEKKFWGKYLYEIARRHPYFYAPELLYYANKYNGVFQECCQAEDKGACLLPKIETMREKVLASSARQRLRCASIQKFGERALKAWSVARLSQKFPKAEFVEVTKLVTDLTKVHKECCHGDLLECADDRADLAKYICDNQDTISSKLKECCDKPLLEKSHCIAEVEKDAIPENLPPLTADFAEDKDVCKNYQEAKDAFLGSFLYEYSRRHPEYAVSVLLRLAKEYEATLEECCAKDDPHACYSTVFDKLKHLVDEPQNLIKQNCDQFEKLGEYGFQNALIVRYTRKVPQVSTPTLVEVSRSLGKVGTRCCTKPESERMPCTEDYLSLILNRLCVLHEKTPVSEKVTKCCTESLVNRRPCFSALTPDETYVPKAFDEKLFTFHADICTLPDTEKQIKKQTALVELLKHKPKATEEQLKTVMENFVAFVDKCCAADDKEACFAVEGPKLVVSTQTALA

The target in experiment [1] is T1, Mus81 protein alone (yeast) (UniProt Q04149).
T1 sequence: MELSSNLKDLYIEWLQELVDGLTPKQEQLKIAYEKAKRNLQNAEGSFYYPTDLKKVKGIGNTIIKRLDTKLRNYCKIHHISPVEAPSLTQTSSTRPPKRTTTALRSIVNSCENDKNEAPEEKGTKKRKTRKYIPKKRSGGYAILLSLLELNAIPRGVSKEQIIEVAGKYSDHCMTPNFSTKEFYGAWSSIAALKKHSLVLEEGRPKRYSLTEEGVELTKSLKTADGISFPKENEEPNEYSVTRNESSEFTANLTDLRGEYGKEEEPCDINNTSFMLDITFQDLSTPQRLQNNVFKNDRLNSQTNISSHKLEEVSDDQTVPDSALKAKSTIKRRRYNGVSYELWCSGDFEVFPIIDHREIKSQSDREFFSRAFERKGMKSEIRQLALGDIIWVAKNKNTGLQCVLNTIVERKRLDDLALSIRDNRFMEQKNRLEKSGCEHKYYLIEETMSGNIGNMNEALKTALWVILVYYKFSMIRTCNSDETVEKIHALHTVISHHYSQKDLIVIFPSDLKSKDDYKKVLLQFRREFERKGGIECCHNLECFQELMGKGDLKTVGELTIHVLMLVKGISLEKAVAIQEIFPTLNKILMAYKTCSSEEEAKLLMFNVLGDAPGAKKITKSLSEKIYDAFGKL
Description: pull-down; purified His-tagged Mus81-Mms4, Mus81 or Mus81 (1-319) mixed with yeast cell extract (150 μL) containing Flag-tagged RFC2 or RFC4, captured on Ni-NTA beads, 30 min at 4 °C; washed with IP150 buffer (150 mM KCl, 0.5% Triton X-100); anti-Flag and anti-His immunoblot; only the target purified. A general note: In western blotting, separated proteins are transferred to a membrane and probed.

The target in experiment [2] is T2, Mus81-Mms4 complex (yeast) (UniProt Q04149+P38257).
T2 sequence 1: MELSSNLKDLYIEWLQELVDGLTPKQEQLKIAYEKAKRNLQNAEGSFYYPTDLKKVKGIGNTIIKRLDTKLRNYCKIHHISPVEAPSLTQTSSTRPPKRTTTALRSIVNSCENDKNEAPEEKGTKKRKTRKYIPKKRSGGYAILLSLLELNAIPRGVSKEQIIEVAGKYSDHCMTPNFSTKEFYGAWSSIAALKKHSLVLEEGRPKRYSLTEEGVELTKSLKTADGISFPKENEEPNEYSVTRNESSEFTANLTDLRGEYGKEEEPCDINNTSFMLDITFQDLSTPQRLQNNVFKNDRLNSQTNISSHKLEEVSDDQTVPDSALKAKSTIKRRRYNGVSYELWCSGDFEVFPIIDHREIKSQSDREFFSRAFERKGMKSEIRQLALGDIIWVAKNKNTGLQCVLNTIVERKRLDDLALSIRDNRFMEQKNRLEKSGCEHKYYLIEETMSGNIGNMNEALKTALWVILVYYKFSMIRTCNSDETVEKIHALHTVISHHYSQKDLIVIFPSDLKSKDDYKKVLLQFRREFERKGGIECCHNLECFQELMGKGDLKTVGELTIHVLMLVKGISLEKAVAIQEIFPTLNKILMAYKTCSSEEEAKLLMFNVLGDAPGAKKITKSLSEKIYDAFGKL
T2 sequence 2: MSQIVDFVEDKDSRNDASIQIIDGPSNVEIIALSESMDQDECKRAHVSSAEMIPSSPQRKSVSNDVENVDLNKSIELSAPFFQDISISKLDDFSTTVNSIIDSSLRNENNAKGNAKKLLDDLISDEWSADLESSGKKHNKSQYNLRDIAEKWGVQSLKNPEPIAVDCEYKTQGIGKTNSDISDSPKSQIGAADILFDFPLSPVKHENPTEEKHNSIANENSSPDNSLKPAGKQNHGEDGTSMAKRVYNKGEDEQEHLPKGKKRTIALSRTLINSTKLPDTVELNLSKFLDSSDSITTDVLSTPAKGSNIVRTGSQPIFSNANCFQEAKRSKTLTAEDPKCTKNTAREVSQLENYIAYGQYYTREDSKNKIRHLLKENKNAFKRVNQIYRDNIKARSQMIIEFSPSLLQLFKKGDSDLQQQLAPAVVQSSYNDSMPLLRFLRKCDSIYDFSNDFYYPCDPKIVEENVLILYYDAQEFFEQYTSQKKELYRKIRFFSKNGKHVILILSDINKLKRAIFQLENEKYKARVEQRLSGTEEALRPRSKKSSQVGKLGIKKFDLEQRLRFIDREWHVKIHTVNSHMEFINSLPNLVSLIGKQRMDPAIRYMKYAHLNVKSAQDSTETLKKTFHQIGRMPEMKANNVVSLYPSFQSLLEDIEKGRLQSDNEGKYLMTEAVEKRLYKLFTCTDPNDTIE
The experiment is described as above.

Experiment [3] has as its target T3, N-terminal fragment of Mus81 (1-319) (yeast) (UniProt Q04149).
T3 sequence: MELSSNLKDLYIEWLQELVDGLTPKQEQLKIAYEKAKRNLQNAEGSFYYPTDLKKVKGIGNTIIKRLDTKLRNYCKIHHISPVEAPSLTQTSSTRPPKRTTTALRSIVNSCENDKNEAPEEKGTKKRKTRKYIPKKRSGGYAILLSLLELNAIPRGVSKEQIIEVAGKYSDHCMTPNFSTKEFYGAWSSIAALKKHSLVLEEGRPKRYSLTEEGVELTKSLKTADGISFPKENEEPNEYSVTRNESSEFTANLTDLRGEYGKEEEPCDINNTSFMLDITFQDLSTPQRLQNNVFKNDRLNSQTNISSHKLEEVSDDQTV
The description is as above.

The target in experiment [4] is bovine serum albumin (BSA) (bovine) (UniProt P02769). Kind of experiment: pull-down; PCNA or BSA covalently bound to Affi-beads; purified Mus81-Mms4 (5 μg); Tris buffer with 100 mM KCl, 30 min at 4 °C; washed twice with 150 mM KCl; SDS gel; both purified.

B1: Flag-tagged RFC4 (protein, UniProt P40339 1-323)
chain: MSKTLSLQLPWVEKYRPQVLSDIVGNKETIDRLQQIAKDGNMPHMIISGMPGIGKTTSVHCLAHELLGRSYADGVLELNASDDRGIDVVRNQIKHFAQKKLHLPPGKHKIVILDEADSMTAGAQQALRRTMELYSNSTRFAFACNQSNKIIEPLQSRCAILRYSKLSDEDVLKRLLQIIKLEDVKYTNDGLEAIIFTAEGDMRQAINNLQSTVAGHGLVNADNVFKIVDSPHPLIVKKMLLASNLEDSIQILRTDLWKKGYSSIDIVTTSFRVTKNLAQVKESVRLEMIKEIGLTHMRILEGVGTYLQLASMLAKIHKLNNKA
With B1, the binding entry in experiment [1], in experiment [2] and in experiment [3] was “binds” each time.

B2: Mus81-Mms4 complex (complex, UniProt Q04149 1-632; P38257 1-691)
chain 1: MELSSNLKDLYIEWLQELVDGLTPKQEQLKIAYEKAKRNLQNAEGSFYYPTDLKKVKGIGNTIIKRLDTKLRNYCKIHHISPVEAPSLTQTSSTRPPKRTTTALRSIVNSCENDKNEAPEEKGTKKRKTRKYIPKKRSGGYAILLSLLELNAIPRGVSKEQIIEVAGKYSDHCMTPNFSTKEFYGAWSSIAALKKHSLVLEEGRPKRYSLTEEGVELTKSLKTADGISFPKENEEPNEYSVTRNESSEFTANLTDLRGEYGKEEEPCDINNTSFMLDITFQDLSTPQRLQNNVFKNDRLNSQTNISSHKLEEVSDDQTVPDSALKAKSTIKRRRYNGVSYELWCSGDFEVFPIIDHREIKSQSDREFFSRAFERKGMKSEIRQLALGDIIWVAKNKNTGLQCVLNTIVERKRLDDLALSIRDNRFMEQKNRLEKSGCEHKYYLIEETMSGNIGNMNEALKTALWVILVYYKFSMIRTCNSDETVEKIHALHTVISHHYSQKDLIVIFPSDLKSKDDYKKVLLQFRREFERKGGIECCHNLECFQELMGKGDLKTVGELTIHVLMLVKGISLEKAVAIQEIFPTLNKILMAYKTCSSEEEAKLLMFNVLGDAPGAKKITKSLSEKIYDAFGKL
chain 2: MSQIVDFVEDKDSRNDASIQIIDGPSNVEIIALSESMDQDECKRAHVSSAEMIPSSPQRKSVSNDVENVDLNKSIELSAPFFQDISISKLDDFSTTVNSIIDSSLRNENNAKGNAKKLLDDLISDEWSADLESSGKKHNKSQYNLRDIAEKWGVQSLKNPEPIAVDCEYKTQGIGKTNSDISDSPKSQIGAADILFDFPLSPVKHENPTEEKHNSIANENSSPDNSLKPAGKQNHGEDGTSMAKRVYNKGEDEQEHLPKGKKRTIALSRTLINSTKLPDTVELNLSKFLDSSDSITTDVLSTPAKGSNIVRTGSQPIFSNANCFQEAKRSKTLTAEDPKCTKNTAREVSQLENYIAYGQYYTREDSKNKIRHLLKENKNAFKRVNQIYRDNIKARSQMIIEFSPSLLQLFKKGDSDLQQQLAPAVVQSSYNDSMPLLRFLRKCDSIYDFSNDFYYPCDPKIVEENVLILYYDAQEFFEQYTSQKKELYRKIRFFSKNGKHVILILSDINKLKRAIFQLENEKYKARVEQRLSGTEEALRPRSKKSSQVGKLGIKKFDLEQRLRFIDREWHVKIHTVNSHMEFINSLPNLVSLIGKQRMDPAIRYMKYAHLNVKSAQDSTETLKKTFHQIGRMPEMKANNVVSLYPSFQSLLEDIEKGRLQSDNEGKYLMTEAVEKRLYKLFTCTDPNDTIE
As to B2, in experiment [4], the binding result is “no binding (tested: 5 μg Mus81-Mms4)”.

B3: Flag-tagged RFC2 (protein, UniProt P40348 1-353)
chain: MFEGFGPNKKRKISKLAAEQSLAQQPWVEKYRPKNLDEVTAQDHAVTVLKKTLKSANLPHMLFYGPPGTGKTSTILALTKELYGPDLMKSRILELNASDERGISIVREKVKNFARLTVSKPSKHDLENYPCPPYKIIILDEADSMTADAQSALRRTMETYSGVTRFCLICNYVTRIIDPLASRCSKFRFKALDASNAIDRLRFISEQENVKCDDGVLERILDISAGDLRRGITLLQSASKGAQYLGDGKNITSTQVEELAGVVPHDILIEIVEKVKSGDFDEIKKYVNTFMKSGWSAASVVNQLHEYYITNDNFDTNFKNQISWLLFTTDSRLNNGTNEHIQLLNLLVKISQL
As for B3, the binding entry in experiment [1], in experiment [2] and in experiment [3] was “binds” each time.

(Values after PMC5625722.)
